Experimental data from PubChem BioAssay AID624417 (National Center for Advancing Translational Sciences (NCATS), 2012).
Values joined by “and” are separate entries in the source; they are usually repeats but may differ in a detail not shown here. Equal values may be shown once. About 6,400 (1.6%) of roughly 410,000 compounds were called active. Inconclusive results, whose numbers are uncertain, are shown with a selection of clear calls. The call rests on the fitted dose curve; in most records, active means well fitted inhibition curve with a large enough effect; inconclusive means small, poorly fitted or top-dose-only effect; inactive means no such curve, though single readings can be large or run the other way. Where the call is inconclusive, the potency comes from a doubtful curve fit.
Further: nearly all actives have a fitted effect of over 55% in size.
On the % scale 0 is the no-effect control and ±100 the full control effect; potency means the concentration at half of the fitted maximal effect; tags describe the fitted curve by direction and shape.

The compounds below were run against Glucagon-like peptide 1 receptor (Homo sapiens) (UniProt P43220) (assay: qHTS of GLP-1 Receptor Inverse Agonists (Inhibition Mode)). Details: HEK293 GLP-1R CRE-luciferase, luminescence, 24 h, GLP-1R form is constitutively active; activity change, negative = inhibition: at 38.3 µM (top of the series) unless noted.
Sequence of UniProt P43220 (P43220 whole entry, looked up): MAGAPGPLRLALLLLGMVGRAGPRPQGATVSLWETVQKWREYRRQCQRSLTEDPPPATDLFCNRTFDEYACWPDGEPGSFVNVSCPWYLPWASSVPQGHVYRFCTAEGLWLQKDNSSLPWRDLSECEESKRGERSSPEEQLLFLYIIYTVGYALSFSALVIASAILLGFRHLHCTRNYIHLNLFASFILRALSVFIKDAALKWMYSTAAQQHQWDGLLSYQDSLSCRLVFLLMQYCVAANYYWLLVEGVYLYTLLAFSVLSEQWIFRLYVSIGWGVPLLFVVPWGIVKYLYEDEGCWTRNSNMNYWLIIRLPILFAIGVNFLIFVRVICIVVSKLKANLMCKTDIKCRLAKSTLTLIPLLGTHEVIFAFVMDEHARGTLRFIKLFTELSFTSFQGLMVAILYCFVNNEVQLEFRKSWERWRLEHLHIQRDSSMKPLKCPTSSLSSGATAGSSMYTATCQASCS
Outline: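 Using stably transfected HEK293 (constitutively active GLP-1R, cAMP-luciferase reporter), compounds were incubated 24 hr and luciferase measured by luminescence.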
With `O=C(Nc1cccc(Cl)c1)c1ccc(S(=O)(=O)NCC2CCCO2)cc1` (stereo unspecified) the Potency was inconclusive: 28.2 µM [inhibitor, single point].
For `CC(Sc1ccc(S(=O)(=O)N2CCOCC2)cn1)c1ccccc1Cl` (stereo unspecified), the Potency was inconclusive: 8.91 µM [inhibitor, partial curve, poor fit].
`CCN(CC)CCCNC(=O)CSc1c2c(nc3cc(Cl)ccc13)CCCC2` was tested, and the Potency was inconclusive: 28.2 µM [inhibitor, single point].
For `O=C(Nc1ccc(Oc2cccnc2)cc1)c1ccc([N+](=O)[O-])cc1`, the “activity change, negative = inhibition” value was inactive: -10.7%.
For `Cc1cc(Br)ccc1SCC(=O)OC/C(O)=C(\C#N)c1nc2ccccc2[nH]1`, the Potency was inconclusive: 12.6 µM [inhibitor, single point].
For `Cc1oc(-c2cccs2)nc1CN1CC[C@@](O)(c2ccccc2)[C@H]2CCCC[C@@H]21`, the Potency was inconclusive: 28.2 µM [inhibitor, single point].
`COc1ccc(-c2nc(-c3ccncc3)no2)c(OC)c1` was tested, and the Potency was inconclusive: 8.91 µM [inhibitor, partial curve, poor fit].
With `S=c1[nH]nc(COc2ccccc2)n1/N=C/C=C/c1ccccc1` the “activity change, negative = inhibition” value was inactive: 10.1%.
With `O=C(/C(=N\Nc1ccc([N+](=O)[O-])cc1)Sc1nnnn1-c1ccccc1)c1ccccc1` the Potency was inconclusive: 31.6 µM [inhibitor, partial curve, poor fit].
For `CC(C)C(=O)Nc1ccc2nn(-c3ccc(F)cc3)nc2c1`, the Potency was inconclusive: 20 µM [inhibitor, single point].
With `COc1ccc(CC(=O)OCC(=O)NC(=O)NC(C)C)cc1` the “activity change, negative = inhibition” value was inactive: 0.31%.
With `Cc1nn(-c2ccccc2)c(C)c1C(=O)OCC(=O)Nc1cccc(S(N)(=O)=O)c1` the “activity change, negative = inhibition” value was inactive: -7.89%.
For `CCCOC(=O)C1=C(C)NC(=O)NC1c1ccc(Br)s1` (stereo unspecified), the Potency was inconclusive: 12.6 µM [inhibitor, single point].
In the case of `Cc1ccc(-c2cc(C(=O)N/N=C/c3c(C)nn(-c4ccccc4)c3C)n[nH]2)s1`, the Potency is reported as inconclusive: 6.31 µM [inhibitor, partial curve].
For `Cc1ccc(S(=O)(=O)N[C@H](C(=O)OCC(=O)NC(=O)NCc2ccco2)C(C)C)cc1`, the Potency was inconclusive: 20 µM [inhibitor, partial curve, poor fit].
With `CN(C)Cc1c(O)ccc2ccccc12` the Potency was inconclusive: 7.94 µM [inhibitor, partial curve, poor fit].
With `Cc1cccc(N2CCN(C(=O)Cc3c(C(=O)O)[nH]c4ccc(Cl)cc34)CC2)c1C` the Potency was inconclusive: 10 µM [inhibitor, partial curve].
For `COc1ccccc1NC(=S)N=Nc1c(O)[nH]c2ccc(Br)cc12`, the Potency was inconclusive: 8.91 µM [inhibitor, partial curve, poor fit].
With `COc1ccc2c3c(c(=O)oc2c1OCC(=O)O)CCCC3` the “activity change, negative = inhibition” value was inactive: 15.3%.
With `Oc1ccc(/C=C/c2ccc3ccccc3n2)cc1` the Potency was inconclusive: 7.08 µM [inhibitor, partial curve, poor fit].
In the case of `Cc1cccc2sc(N(CCCN(C)C)C(=O)c3ccc(Cl)s3)nc12`, the Potency is reported as inconclusive: 11.2 µM [inhibitor, single point] and inconclusive: 10 µM [inhibitor, partial curve].
For `CCc1cccc(CC)c1NC(=O)COC(=O)CC1c2ccccc2CCN1S(=O)(=O)c1ccc(F)cc1` (stereo unspecified), the Potency was inconclusive: 11.2 µM [inhibitor, single point].
For `CC(=O)Nc1ccc(NC(=O)c2nc(S(=O)(=O)Cc3cccc(C)c3)ncc2Cl)cc1`, the Potency was inconclusive: 28.2 µM [inhibitor, single point].
`CCn1c2ccccc2c2cc(CN3CCN(Cc4ccccc4Cl)CC3)ccc21` was tested, and the Potency was inconclusive: 7.08 µM [inhibitor, partial curve, poor fit].
For `CCC1(CC)Cc2ccccc2-c2[nH]c(=S)[nH]c(=O)c21`, the Potency was inconclusive: 28.2 µM [inhibitor, single point].
`COc1ccc(S(=O)(=O)N2CCCC2CNC(=O)C(=O)NCc2cccs2)cc1` (stereo unspecified) was tested, and the Potency was inconclusive: 14.1 µM [inhibitor, partial curve, poor fit].
For `COc1ccc(S(=O)(=O)N2CCCCC2)cc1C(C)C`, the Potency was inconclusive: 25.1 µM [inhibitor, single point].
For `Oc1cc(OCc2ccccc2)ccc1-c1[nH]ncc1-c1ccccc1`, the Potency was inconclusive: 12.6 µM [inhibitor, partial curve, poor fit].
In the case of `CCCOc1ccc(-c2c(C(=O)N/N=C(\C)c3ccncc3)nnn2-c2nonc2N)cc1`, the Potency is reported as inconclusive: 22.4 µM [inhibitor, single point].
With `O=C(NC(=S)NNC(=O)c1ccccc1O)c1ccc([N+](=O)[O-])cc1` the “activity change, negative = inhibition” value was inactive: -11.8%.
For `CC1CCN(c2nc3ccccn3c(=O)c2C=O)CC1`, the “activity change, negative = inhibition” value was inactive: 15.1%.
For `Cc1ccc(NC(=O)CN(C)C(=O)c2sc3cc(Cl)ccc3c2Cl)cc1`, the Potency was inconclusive: 3.55 µM [inhibitor, partial curve, poor fit].
For `C/C(=N\NC(=O)C1(C)CC1(Br)Br)c1cccc(NC(=O)C2CCC2)c1` (stereo unspecified), the Potency was inconclusive: 12.6 µM [inhibitor, partial curve, poor fit].
For `O=C(c1ccccc1)c1c(-c2ccccc2)[nH]n(-c2ccccc2)c(=O)c1=O`, the Potency was inconclusive: 14.1 µM [inhibitor, single point].
In the case of `O=C(Nc1nc2ccccc2[nH]1)c1ccccc1`, the Potency is reported as inconclusive: 7.08 µM [inhibitor, partial curve, poor fit].
With `Cc1ccc(NC(=O)c2c(C)noc2-c2snnc2C)cc1` the Potency was inconclusive: 11.2 µM [inhibitor, single point].
For `COc1cccc(NC(=O)Nc2ccc(C)c(Cl)c2)c1`, the Potency was inconclusive: 7.94 µM [inhibitor, partial curve, poor fit].
`CCc1cccc(-n2c(C)nc3c(cnn3-c3ccc(C)c(C)c3)c2=O)c1` was tested, and the Potency was inconclusive: 8.91 µM [inhibitor, partial curve, poor fit].
In the case of `CCOc1ccc(NC(=O)CSc2nc(C)c(C(=O)Nc3ccccc3)c(-c3ccc(Cl)cc3)c2C#N)cc1`, the “activity change, negative = inhibition” value is reported as inactive: 0.401%.
In the case of `COCCn1nnnc1C(c1cc2cc(C)ccc2[nH]c1=O)N1CCCCCC1` (stereo unspecified), the “activity change, negative = inhibition” value is reported as inactive: 48.6%.
In the case of `Cc1ccccc1Sc1ncnc2onc(C)c12`, the Potency is reported as inconclusive: 28.2 µM [inhibitor, single point].
With `CC(C)c1ccccc1NC(=S)NCc1nc2ccccc2[nH]1` the Potency was inconclusive: 10 µM [inhibitor, partial curve, poor fit].
`COc1ccccc1N1CCN(C(=O)c2ccc(S(=O)(=O)N3CCCCC3)cc2)CC1` was tested, and the Potency was inconclusive: 31.6 µM [inhibitor, single point].
With `CCC(c1ccccc1)c1nc(-c2ccccn2)no1` (stereo unspecified) the Potency was inconclusive: 28.2 µM [inhibitor, single point].
In the case of `CCc1ccccc1NC(=O)Nc1ccc2c(c1)N(CC)C(=O)c1ccccc1S2`, the Potency is reported as active: 5.01 µM.
For `CCOc1ccccc1CNC(=O)c1cc2n(n1)CCCN(Cc1ccc(C)cc1)C2=O`, the Potency was inconclusive: 10 µM [inhibitor, partial curve, poor fit].
In the case of `O=[N+]([O-])c1ccc(N2N=C(c3ccco3)CC2c2ccccc2)cc1` (stereo unspecified), the “activity change, negative = inhibition” value is reported as inactive: 0%.
For `O=C(NC1CCCCC1)N(c1ccccc1)c1nnc(-c2cccc([N+](=O)[O-])c2)s1`, the Potency was inconclusive: 22.4 µM [inhibitor, single point].
For `Cc1ccc(S(=O)(=O)N2CCN(CCOc3cccc(C)c3)CC2)cc1`, the Potency was inconclusive: 12.6 µM [inhibitor, single point].
For `CCCCn1c(N)c(N(CC(C)C)C(=O)C2CCN(S(=O)(=O)c3ccc(C)c(C)c3)CC2)c(=O)[nH]c1=O`, the Potency was inconclusive: 22.4 µM [inhibitor, single point].
With `CCOc1ccc(-c2cc(OC(=O)c3ccc(OC)cc3)c3c(C)oc(C)c3c(=O)c2)cc1` the “activity change, negative = inhibition” value was inactive: -25.4%.
For `CC1(Oc2ccccc2-c2ccno2)CCN(Cc2ccc(-c3ccccc3)o2)C1` (stereo unspecified), the Potency was inconclusive: 28.2 µM [inhibitor, single point].
`COc1ccc([C@H]2C[C@@H](n3cc(-c4ccc(F)cc4)nn3)[C@H](O)CN2C(=O)C2CCCCC2)cc1` was tested, and the Potency was inconclusive: 11.2 µM [inhibitor, partial curve, poor fit].
For `O=C(CN1CCC(C(=O)c2ccc(Cl)cc2)CC1)Nc1ccc2c(c1)OCCO2`, the Potency was inconclusive: 28.2 µM [inhibitor, single point].
`Cc1ccccc1CSc1nc2n(n1)C(c1cccs1)C1=C(CCCC1=O)N2` (stereo unspecified) was tested, and the Potency was inconclusive: 25.1 µM [inhibitor, single point].
With `COc1cc(F)ccc1-c1csc(C(O)(c2ccccc2)C(F)(F)F)n1` (stereo unspecified) the Potency was inconclusive: 3.16 µM [inhibitor, full curve].
`O=S(=O)(c1ccc2c(c1)OCO2)N1CCN(c2nnnn2-c2ccccc2)CC1` was tested, and the “activity change, negative = inhibition” value was inactive: 23.1%.
In the case of `CCCN1C(=O)/C(=N\OCC(=O)NC23CC4CC(CC(C4)C2)C3)c2ccccc21`, the Potency is reported as inconclusive: 8.91 µM [inhibitor, partial curve].
In the case of `O=C(c1ccc(CSc2nc3ccncc3n2Cc2ccc(F)cc2)cc1)N1CCCCCC1`, the Potency is reported as inconclusive: 28.2 µM [inhibitor, single point].
`Cc1cc(OCc2cc(C(=O)N(C)CCOc3ccccc3)no2)cc(C)c1Cl` was tested, and the Potency was inconclusive: 11.2 µM [inhibitor, single point].
For `CCc1nc2ccc(C(=O)N3CCN(c4cccc(C)c4C)CC3)cc2nc1CC`, the Potency was inconclusive: 7.94 µM [inhibitor, partial curve, poor fit].
